Details: dark, 40° C.
Procedure: The irradiated solution was subsequently allowed to sit in a temperature control cell holder in the dark at 40° C. for 1 min before the absorption spectrum of the solution at 40° C. was recorded. The regeneration of each pyridones was monitored by recording change in its λmax as a function of time.
The thermal decomposition of the endoperoxide adducts were expected to follow a first order reaction kinetics. Thus, the integrated rate law is expressed using equations (2) and (3): 1st order; [Endo]t=[Endo]0e^−kt (2) ln [Endo]t−kt=+ln [Endo]0 (3)
The progress of Endoperoxide release reaction was monitored by the increase of the pyridone absorption, thus the concentrations of the endoperoxide at various reaction times can be calculated by equations (4) and (5). [Endo]t=[Endo]0−[Pyridone]t (4) [Pyridone]t=A(pyridone)t/εpyridone (5)

SMILES	Half Life Ln (2)/k
COC(=O)CN1C(=O)C2C=CC1OO2 (stereo not drawn) [ENDOPEROXIDE 201A]	Half Life ENDOPEROXIDE 201A Ln (2)/k 17329 s 289 min 4.8 hrs
COC(=O)CN1C(=O)C2(C)C=CC1OO2 (stereo not drawn) [ENDOPEROXIDE 201B]	Half Life ENDOPEROXIDE 201B Ln (2)/k 34657 s 578 min 9.6 hrs
COC(=O)CN1C(=O)C2OOC1C=C2C (stereo not drawn) [ENDOPEROXIDE 201C]	Half Life ENDOPEROXIDE 201C Ln (2)/k 34657 s 578 min 9.6 hrs
COC(=O)CN1C(=O)C2C=C(C)C1OO2 (stereo not drawn) [ENDOPEROXIDE 201D]	Half Life ENDOPEROXIDE 201D Ln (2)/k 34657 s 578 min 9.6 hrs
COC(=O)CN1C(=O)C2C=CC1(C)OO2 (stereo not drawn) [ENDOPEROXIDE 201E]	Half Life ENDOPEROXIDE 201E Ln (2)/k 23105 s 385 min 6.4 hrs
CC(C)CCN1C(=O)C2(C)C=CC1OO2 (stereo not drawn) [ENDOPEROXIDE 301B]	Half Life ENDOPEROXIDE 301B Ln (2)/k 7702 s 128 min 2.1 hrs
CC1=CC2OOC1N(CCC(C)C)C2=O (stereo not drawn) [ENDOPEROXIDE 301C]	Half Life ENDOPEROXIDE 301C Ln (2)/k 6931 s 116 min 1.9 hrs
CC1=CC2OOC1C(=O)N2CCC(C)C (stereo not drawn) [ENDOPEROXIDE 301D]	Half Life ENDOPEROXIDE 301D Ln (2)/k 11552 s 193 min 3.2 hrs
CC1=CC2OOC1N(CC(C)C)C2=O (stereo not drawn) [ENDOPEROXIDE 401A]	Half Life ENDOPEROXIDE 401A Ln (2)/k 11552 s 193 min 3.2 hrs

— patent publication US8921243B2 (priority 2009, dated 2014)
